The record followed here is article PMC4336329 (PLoS ONE, 2015).

Structures are written as SMILES. Screen size: about 310,000 compounds; about 2,200 (0.71%) showed an effect of 50% or more. Effects have a minus sign here. This is one part of the list.

human ether-à-go-go-related gene (hERG) potassium channel, sequence (Q12809 whole entry, looked up): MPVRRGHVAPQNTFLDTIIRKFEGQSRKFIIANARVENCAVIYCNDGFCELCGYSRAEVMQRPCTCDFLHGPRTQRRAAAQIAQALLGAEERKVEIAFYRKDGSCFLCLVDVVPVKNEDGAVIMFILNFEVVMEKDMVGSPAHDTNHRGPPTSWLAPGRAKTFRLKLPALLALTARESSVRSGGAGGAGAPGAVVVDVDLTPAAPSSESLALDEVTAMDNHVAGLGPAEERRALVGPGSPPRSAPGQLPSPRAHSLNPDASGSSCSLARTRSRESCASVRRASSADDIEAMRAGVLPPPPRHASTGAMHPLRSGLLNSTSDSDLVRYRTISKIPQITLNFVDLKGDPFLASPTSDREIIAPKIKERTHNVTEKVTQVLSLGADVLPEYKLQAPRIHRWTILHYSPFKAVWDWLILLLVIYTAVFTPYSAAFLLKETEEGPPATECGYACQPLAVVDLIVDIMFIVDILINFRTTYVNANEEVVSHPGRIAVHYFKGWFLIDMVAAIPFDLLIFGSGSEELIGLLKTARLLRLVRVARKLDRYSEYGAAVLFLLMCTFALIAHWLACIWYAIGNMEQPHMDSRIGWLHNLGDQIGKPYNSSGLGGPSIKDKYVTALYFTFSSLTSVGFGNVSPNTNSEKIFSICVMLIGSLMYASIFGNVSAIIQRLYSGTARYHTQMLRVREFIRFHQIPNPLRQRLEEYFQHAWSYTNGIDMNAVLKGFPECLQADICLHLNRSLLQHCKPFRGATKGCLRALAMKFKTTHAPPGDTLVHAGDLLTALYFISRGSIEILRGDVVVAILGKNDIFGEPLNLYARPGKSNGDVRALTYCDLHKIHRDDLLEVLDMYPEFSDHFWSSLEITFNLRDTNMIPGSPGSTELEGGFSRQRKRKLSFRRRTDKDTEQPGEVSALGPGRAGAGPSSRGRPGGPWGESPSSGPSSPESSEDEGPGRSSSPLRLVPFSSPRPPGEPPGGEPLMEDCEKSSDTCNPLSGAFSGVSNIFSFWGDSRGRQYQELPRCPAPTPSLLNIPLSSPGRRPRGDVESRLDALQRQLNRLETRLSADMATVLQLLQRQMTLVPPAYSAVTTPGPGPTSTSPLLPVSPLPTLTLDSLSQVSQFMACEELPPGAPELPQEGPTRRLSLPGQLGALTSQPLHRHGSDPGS

This experiment concerns the target human ether-à-go-go-related gene (hERG) potassium channel (human, UniProt Q12809). Nature of the experiment: primary screen, population patch clamp on CHO cells stably expressing hERG.
Regarding `O=C(O)c1ccccc1NC(=S)NC(=O)c1cccc2ccccc12`, the “hERG current change (%, negative = inhibition) at 1uM” value is 9.59%.
Turning to `Brc1ccc(N=NNc2ccccc2)cc1`, the “hERG current change (%, negative = inhibition) at 1uM” value amounted to 18.7%.
For `O=c1[nH]cnc2c1sc1nc(C(F)F)cc(-c3ccccc3)c12`, the “hERG current change (%, negative = inhibition) at 1uM” value was determined as 4.07%.
As for `COCCNC(=O)COc1ccc(C)cc1C(=O)c1cc(C#N)c(=O)n(C2CC2)c1`, the “hERG current change (%, negative = inhibition) at 1uM” value amounted to 9.98%.
With `CN(C(=O)COC(=O)C1CCN(S(=O)(=O)c2cccs2)CC1)c1ccccc1`, the “hERG current change (%, negative = inhibition) at 1uM” value is on record as 2.54%.
For the molecule `CC(C)(C)c1ccc(/C=N/N2CCN(c3ccccn3)CC2)cc1`, the “hERG current change (%, negative = inhibition) at 1uM” value was 6.71%.
`COC(=O)CC1(C(=O)OC)Oc2ccc(Br)cc2C(=O)N1c1cc(Cl)cc(Cl)c1` (stereo not shown): the “hERG current change (%, negative = inhibition) at 1uM” value is 9.12%.
As for `O=C(CCc1nnc2ccc(NCc3ccco3)nn12)Nc1cccc(F)c1`, the “hERG current change (%, negative = inhibition) at 1uM” value is reported as 15.6%.
For the molecule `COc1ccccc1Nc1nc(N)nc(CSC(=S)N2CCOCC2)n1`, the “hERG current change (%, negative = inhibition) at 1uM” value is recorded as 7.43%.
For the molecule `O=C(Nc1cccc(S(=O)(=O)NC2=NCCC2)c1)c1cc(=O)[nH]c2ccccc12`, the “hERG current change (%, negative = inhibition) at 1uM” value was found to be 9.28%.
With `CCOc1ccccc1NC(=O)c1cc(C(=O)c2cc(Br)ccc2O)coc1=N` the figure was 18.4%; with `COc1ccc(NC(=O)c2ccc(S(=O)(=O)N(C)C)cc2)cc1OC`, 2.04%; with `Nn1c(SCC(=O)Nc2ccc3c(c2)OCO3)nnc1-c1ccncc1`, 4.32%.
With `CCS(=O)(=O)NCC(c1ccco1)N1CCN(c2ccccc2)CC1` (stereo not shown) the figure was 10.7%.
In the case of `Cc1cc(C)c(S(=O)(=O)c2ccc(F)cc2C)c(Cl)n1` it was 12.6%; in that of `COc1ccc(C(=O)CC(=O)C(=O)Nc2ccccc2)cc1`, 4.29%; in that of `O=C(Nc1cc(Cl)ccc1-n1cncn1)c1ccc([N+](=O)[O-])s1`, 4.39%.
As for `Cc1cc(N/N=C/c2ccncc2)c([N+](=O)[O-])cc1[N+](=O)[O-]`, the “hERG current change (%, negative = inhibition) at 1uM” value is on record as 10.7%.
With `COc1cc(C(=O)Oc2cccc(Nc3ncnc4ccccc34)c2)cc(OC)c1OC`, the “hERG current change (%, negative = inhibition) at 1uM” value is given as 4.04%.
Regarding `O=c1c2ccccc2ccc2ccc(P(=O)(O)O)cc12`, the “hERG current change (%, negative = inhibition) at 1uM” value is on record as -30.3%.
In the case of `Cc1cc(SCCC(=O)O)nc2c(C)cccc12` it was 12%; in that of `CCC(CC)C(=O)Nc1cccc(C(=O)Nc2ccc(S(N)(=O)=O)cc2)c1`, 11.9%.
For `CCOc1cc(/C=C2\NC(=O)NC2=O)ccc1OC(C)C(=O)O` (stereo not shown), the “hERG current change (%, negative = inhibition) at 1uM” value came to 13.4%.
As to `C/C(=N/NC(=O)c1ccco1)c1ccc(NC(=O)c2ccc(F)cc2)cc1`, the “hERG current change (%, negative = inhibition) at 1uM” value amounted to 16.6%.
In the case of `Cc1cc(S(=O)(=O)NCc2ccccc2)ccc1OCC(=O)NCc1cccnc1`, the “hERG current change (%, negative = inhibition) at 1uM” value worked out at 9.38%.
As for `CC1(c2ccc3noc(-c4ccc(Cl)cc4)c3c2)OCCO1`, the “hERG current change (%, negative = inhibition) at 1uM” value is on record as 10.9%.
As for `O=c1[nH]cc(S(=O)(=O)N2CCOCC2)c(=O)[nH]1`, the “hERG current change (%, negative = inhibition) at 1uM” value was found to be 1.01%.
For the molecule `Cc1ccc(CNC(=O)CCS(=O)(=O)c2ccc(Br)s2)cc1`, the “hERG current change (%, negative = inhibition) at 1uM” value is 17.8%.
As for `CC(=O)Oc1c2occc2cc2ccc(=O)oc12`, the “hERG current change (%, negative = inhibition) at 1uM” value is on record as 0.628%.
Consider `Clc1ccc(C2=NCCn3nc4ccccc4c32)cc1`, for which the “hERG current change (%, negative = inhibition) at 1uM” value came out at 9.46%.
Regarding `O=C(COC(=O)C1CC(=O)N(c2ccccc2)C1)c1ccccc1` (stereo not shown), the “hERG current change (%, negative = inhibition) at 1uM” value is on record as 1.02%.
As for `NS(=O)(=O)c1cccc(NS(=O)(=O)c2ccc(/C=C/C(=O)OCC(=O)c3ccccc3)cc2)c1`, the “hERG current change (%, negative = inhibition) at 1uM” value worked out at 18.2%.
Consider `Cc1ccc(C2C(=O)NC(=O)NC2=O)cc1`, for which the “hERG current change (%, negative = inhibition) at 1uM” value turned out to be 15.8%.
Consider `CCOC(=O)N1C(=O)[C@@](c2ccc(Cl)cc2)(C(C)C)N1C(=O)OCC`, for which the “hERG current change (%, negative = inhibition) at 1uM” value is given as 19.5%.
Regarding `CCOCCSc1nnc2nc(C)cc(C)n12`, the “hERG current change (%, negative = inhibition) at 1uM” value stood at 9.38%.
In the case of `COc1cc(CNCc2ccccc2)cc(Cl)c1OC.Cl` it was 8.62%.
Regarding `CCCNC(=O)NS(=O)(=O)c1cnccc1Sc1ccc(Cl)c(Cl)c1`, the “hERG current change (%, negative = inhibition) at 1uM” value was -0.137%.
Take `CCOC(=O)C1=C(C(F)(F)F)Nc2ncnn2C1c1ccc(OC)cc1OC` (stereo not shown): the “hERG current change (%, negative = inhibition) at 1uM” value was found to be 18.9%.
With `COc1cccc(O)c1CN1CCC(C(=O)Nc2ccc(-c3cccc(C)c3)cc2)CC1` the figure was 17.4%; with `COc1cc2c(cc1OC)C(SC)=NC1(CCCC1)C2`, 13.8%.
As to `Cc1cc(C)nc(Nc2nc3ccccc3s2)n1`, the “hERG current change (%, negative = inhibition) at 1uM” value worked out at 10.7%.
Consider `CCN(CC)S(=O)(=O)c1ccc2c(c1)N(CC(=O)NCc1ccco1)C(=O)CO2`, for which the “hERG current change (%, negative = inhibition) at 1uM” value is 13.5%.
With `CCOC(=O)CC(NC(=O)c1ccco1)c1ccc(OC)cc1` (stereo not shown), the “hERG current change (%, negative = inhibition) at 1uM” value is 13.5%.
Turning to `Clc1ccccc1CONc1ncnc2nonc12`, the “hERG current change (%, negative = inhibition) at 1uM” value worked out at 7.67%.
On to `CC(C)(C)OC(=O)N1CCC(C(=O)O)CC1`, for which the “hERG current change (%, negative = inhibition) at 1uM” value came to 8.68%.
For the molecule `COc1ccccc1CCC(=O)OCC(=O)Nc1c(Br)cc(C)cc1Br`, the “hERG current change (%, negative = inhibition) at 1uM” value was determined as 11.4%.
Turning to `CC(C)CCOc1ccc(C(=O)NN2C(=O)NC3(CCCCC3)C2=O)cc1`, the “hERG current change (%, negative = inhibition) at 1uM” value worked out at 2.74%.
As to `CN(C)C(=O)NC(Nc1ccc(Cl)cc1Cl)C(Cl)(Cl)Cl` (stereo not shown), the “hERG current change (%, negative = inhibition) at 1uM” value is reported as 4.33%.
For `CCOC(=O)N1CCN(C(=O)C(NC(=O)c2ccc(CC)cc2)C(C)C)CC1` (stereo not shown), the “hERG current change (%, negative = inhibition) at 1uM” value is given as -4.46%.
Consider `O=C(Nc1ccccc1C(=O)NCc1cccnc1)c1ccccc1Cl`, for which the “hERG current change (%, negative = inhibition) at 1uM” value is listed as 9.12%.
In the case of `CCOC(=O)c1c(-c2ccccc2)csc1NC(=O)CSc1nnnn1C`, the “hERG current change (%, negative = inhibition) at 1uM” value is -5.16%.
Consider `CCCc1nc(SCC(=O)Nc2ccccc2)c2c(=O)n(C)c(=O)n(C)c2n1`, for which the “hERG current change (%, negative = inhibition) at 1uM” value is recorded as 11.6%.
Turning to `COc1ccc(C2C3=C(Nc4ncnn42)c2ccccc2CCC3)cc1` (stereo not shown), the “hERG current change (%, negative = inhibition) at 1uM” value was determined as 1.1%.
Consider `CC(=O)NCCOc1cccc(OCCNC(C)=O)c1`, for which the “hERG current change (%, negative = inhibition) at 1uM” value worked out at 5.84%.
On to `Cn1c(/C(C#N)=C/c2ccncc2)nc2ccccc21`, for which the “hERG current change (%, negative = inhibition) at 1uM” value is recorded as -7.88%.
With `O=C(Nc1ccccc1)Nc1cc(S(=O)(=O)N2CCOCC2)ccc1N1CCCC1`, the “hERG current change (%, negative = inhibition) at 1uM” value is 9.98%.
As to `COC(=O)c1cccc(NC(=O)C(C)(C)C)c1`, the “hERG current change (%, negative = inhibition) at 1uM” value is recorded as 16.3%.
With `CC1(C)Cc2ccccc2-c2n[nH]c(=S)n21` the figure was 10.2%.
